Laboratory results reported in PubChem BioAssay AID624296 (National Center for Advancing Translational Sciences (NCATS), 2012).
About 9,900 (2.8%) of roughly 350,000 compounds were called active. Inconclusive means that the source gave no clear call. Such entries were picked first, then a sample of the others. Calls follow the shape of the dose curve; as a rule, active = well fitted activation curve with a large enough effect; inconclusive = small, poorly fitted or top-dose-only effect; inactive = no such curve, though single readings can be large or run the other way. No potency is given beside an inconclusive call; the fits are too rough.

Test: A quantitative high throughput screen for small molecules that induce DNA re-replication in MCF 10a normal breast cells. Also: nearly all actives have a fitted effect of over 50% in size. As to activity, positive = re-replication: % of control where 0% means no effect.
Details: MCF 10A DNA re-replication, Hoechst nuclear intensity, 48 h; activity, positive = re-replication: at 46.1 µM (top of the series)
Potency is read from the fitted curve at half-maximal effect; tags tell the direction and shape of the fitted curve.

SMILES	Potency	activity, positive = re-replication
Cc1ccc(-c2nc3c(c(SCC(=O)N4CCOCC4)n2)COC(C)(C)C3)cc1	inactive	
CC1CC1C(=O)OCC(=O)NNC(=O)COc1ccc(Br)cc1 (configuration not stated)	inactive	
O=C(NCCc1csc(-c2cccnc2)n1)c1cccc2ccccc12	inconclusive [activator, partial curve, poor fit]	
Cc1ccc(-c2cc3nc(-c4ccc(Br)cc4)cc(N)n3n2)cc1	inconclusive [activator, partial curve]	
O=C(Nc1ccccc1F)Nc1cc(S(=O)(=O)N2CCOCC2)ccc1N1CCCC1	inactive	
c1ccc(C(Cc2nc(-c3ccccn3)no2)c2ccccc2)cc1	inconclusive [activator, partial curve, poor fit]	
CC[n+]1c(C)sc2c(C)cc(C)cc21	inactive	
CC(C)c1ccc(C(=O)Nc2ccc(CN3CCOCC3)cc2)cc1	inconclusive [activator, single point]	
c1ccc(-c2csc(NNC3=NCCCCC3)n2)cc1	inconclusive [activator, single point]	
CC(Sc1nnnn1C)C(=O)NC1CCCC1 (configuration not stated)	inactive	
CCCc1cc(C(=O)N2CCN(c3ccc(C(F)(F)F)cn3)CC2)sc1C	inactive	
CC(C)(C)c1ccc(C(=O)C2CCCN(C(=O)C3CCOCC3)C2)cc1 (configuration not stated)	inconclusive [activator, single point]	
Cc1onc(-c2ccccc2)c1C(=O)OCC(=O)c1ccccc1	inconclusive [activator, partial curve, poor fit]	
C#CCOCCOCCOCCNc1nc(N2CCN(C(=O)CCCCCCCCCCNC(=O)Cn3cc(CCCCCN)nn3)CC2)nc(N2CCN(C(=O)CCCCCCCCCCNC(=O)Cn3cc(C[C@@H](C)O)nn3)CC2)n1	active: 23.1 µM	
CCOC(=O)C(C)Oc1cccc2c(=O)n(CC(=O)NCCc3ccccc3)ccc12 (configuration not stated)	inactive	
OC(CNCC(c1ccc(Cl)cc1Cl)c1c[nH]c2ccccc12)c1ccccc1 (configuration not stated)	inconclusive [activator, single point]	
O=C(COC(=O)/C=C/c1ccccc1)Nc1nnc(-c2ccccc2)o1	inconclusive [activator, partial curve]	
CC(C)N(CCCNC(=O)Cn1c(=O)c2cccn2c2ccccc21)Cc1ccccc1	inactive	
Cc1cccc2c(C(=O)N3CCN(C(=O)c4ccco4)CC3)cc(-c3cccc(Br)c3)nc12	active: 18.4 µM	
O=C(C1=C[C@H](c2ccc(Br)cc2)C[C@H](OCCCCO)O1)N1CCN(Cc2ccc3c(c2)OCO3)CC1	active: 18.4 µM	
CCOc1ccc(S(=O)(=O)Nc2ccc(C(=O)NCC(c3ccco3)N(C)C)cc2)cc1 (configuration not stated)	inactive	
CN(C)c1ccc(N2C(=NC(=O)CC3CCCCC3)SC3CS(=O)(=O)CC32)cc1 (configuration not stated)	inconclusive [activator, partial curve, poor fit]	
O=C(CC1(O)C(=O)N(C/C=C/c2ccccc2)c2ccccc21)c1ccccn1 (configuration not stated)	inconclusive [activator, single point]	
O=C(CCCOc1ccc(Br)cc1)Nc1ccc(S(=O)(=O)N2CCOCC2)cc1	inconclusive [activator, single point]	

SMILES	Potency	activity, positive = re-replication
COc1ccc(OCC(=O)NNc2c3ccccc3nc3ccccc23)cc1	inconclusive [activator, single point]	
CC1CCCC(C)N1C(=O)COc1ccc([N+](=O)[O-])cc1Cl (configuration not stated)	inconclusive [activator, single point]	
O=C(OCC(=O)N1CCN(S(=O)(=O)c2ccc(Cl)cc2)CC1)C1CC1	inactive	
COc1ccc(-n2c(O)c(C=Nc3ccccc3)c3ccccc3c2=O)cc1	inconclusive [activator, full curve, poor fit]	
Cc1cccc(NS(=O)(=O)c2ccc(C3CCCCC3)cc2)c1	inconclusive [activator, partial curve, poor fit]	
COc1cc([N+](=O)[O-])ccc1NC(=O)CN(C)C	inconclusive [activator, single point]	
COc1cc(NC(=O)c2ccccc2)c(OC)cc1NC(=O)Cc1ccc(Br)cc1	active: 11.6 µM	
CNC(=S)N1N=C(c2ccccc2)CC1c1ccccc1Cl (configuration not stated)	inconclusive [activator, full curve]	
NS(=O)(=O)c1cccc(Nc2nc3ccccc3nc2NS(=O)(=O)c2ccc(Cl)cc2)c1	inconclusive [activator, single point]	
COc1ccc(NC(=O)Cc2nnc(SCC(=O)NC3CCCC3)n2C)cc1	inactive	
Cc1ccc(NC(=O)CSc2nnc(C3CC3)n2C)cc1S(=O)(=O)N1CCCCC1	inactive	
CN(c1ccccc1)S(=O)(=O)c1ccc(Cl)nc1	inactive	
COc1ccc(C(CCNCc2ccccc2F)c2ccc(F)cc2)cc1 (configuration not stated)	inconclusive [activator, partial curve, poor fit]	
O=C(NC1CCCc2c1cnn2-c1cc(F)cc(F)c1)c1ccncc1 (configuration not stated)	inactive	
O=C(NCCCNC(=O)c1cnccn1)c1ccc(Br)cc1	inactive	
O=C1OC(c2ccccc2)(c2ccccc2)c2ccccc21	inconclusive [activator, single point]	
COc1ccc(CCNC(=S)NC(=O)/C=C/c2ccc(C)cc2)cc1OC	inconclusive [activator, single point]	
O=S(=O)(Cc1ccccc1)N1CCN(Cc2ccc(Br)cc2)CC1	inactive	
COc1ccc(-c2cn(-c3ccccc3)nc2C(=O)O)cc1OC	inactive	
O=C(CSc1ccccn1)Nc1ccc2c(c1)CCC2	inconclusive [activator, single point]	
CCOc1ccccc1NC(=S)N1CCCCCC1	inactive	
C#CCn1c(=NC(=O)c2ccc(Cl)s2)sc2cccc(OC)c21	active: 18.4 µM	
COc1cccc(CNCc2cccnc2)c1OCc1ccccc1	inconclusive [activator, partial curve, poor fit]	
C=CCC[C@@H](Cc1ccc(F)cc1)C(=O)OC[C@@H](NC(=O)[C@@H](CC=C)CC(=O)N[C@@H](CO)Cc1ccccc1)C(C)(C)C	inconclusive [activator, partial curve, poor fit]	

SMILES	Potency	activity, positive = re-replication
CCOc1cccc(/C=N/Nc2nc(N3CCCC3)nc(N3CCCC3)n2)c1O	inactive	
Cc1cccc(N(CC(=O)Nc2ccccc2F)S(C)(=O)=O)c1	inactive	
CN(C)c1oc(-c2ccccc2)nc1C#N	inactive	
O=C(Nc1ccc(-n2nncc2-c2ccco2)cc1)c1cc2ccccc2oc1=O	inconclusive [activator, full curve, poor fit]	
CCCNC(=O)CN1CCN(c2cc3ccccc3c(Cl)n2)CC1	inconclusive [activator, single point]	
CC1=NN(c2nc(C)cc(C)n2)C(=O)C1CCC(C)C (configuration not stated)	inactive	
CCn1c(/C=C/Nc2ccccc2)[n+](CC)c2cc(Cl)c(Cl)cc21	inconclusive [activator, single point]	
CC(CCc1ccccc1)NC(=O)CSc1ccccn1 (configuration not stated)	inconclusive [activator, partial curve, poor fit]	
O=C(NCc1ccccc1CN1CCCC1)c1cccc(S(=O)(=O)Nc2ccc(F)cc2)c1	inactive	
CCOc1ccc(C2C(C(=O)c3ccc(C)o3)=C(O)C(=O)N2c2nc(C)c(C(=O)OC)s2)cc1 (configuration not stated)	inconclusive [activator, single point]	
CC(C)CC(COCc1cccc(C(F)(F)F)c1)N1CCN(C(=O)c2cccc(C(F)(F)F)c2)CCC1=O (configuration not stated)	inconclusive [activator, partial curve, poor fit]	
O=C(Cn1cnc2c(OCc3ccccc3)ncnc21)NCCCN1CCCC1=O	inconclusive [activator, full curve, poor fit]	
Cc1ccc(CNC(=O)C2(S(=O)(=O)c3ccccc3)CC=CC2)cc1	inactive	
Cc1cccc(N=C2NC(=O)/C(=C\c3cccs3)S2)c1	inconclusive [activator, single point]	
CC(C)Nc1nc(-c2ccccc2)nc(-n2ccnc2)n1	inactive	
O=C(NC(C(=O)N/N=C/c1c2ccccc2cc2ccccc12)c1n[nH]c(=O)c2ccccc12)c1ccccc1 (configuration not stated)	active: 2.06 µM	
COc1c(O)c(=O)n2c3ccccc3c3ccnc1c32	inactive	
COC(=O)CN(c1ccc(C)cc1)S(=O)(=O)c1c(C)[nH]c(=O)[nH]c1=O		inconclusive: -22% [activator]
O=C(Nc1ccccc1)c1ccc(S(=O)(=O)NCC2CCCO2)cc1 (configuration not stated)	inconclusive [activator, full curve, poor fit]	
O=C1CCCc2cc3c(cc21)CC1(C3)Cc2cc3c(cc2C1)C(=O)CCC3	active: 3.26 µM	
C=CCn1c(=S)[nH]c2scc(-c3cccs3)c2c1=O	inconclusive [activator, single point]	
O=S(=O)(c1ccccc1)c1nc(-c2ccccc2Cl)oc1NCCCN1CCOCC1	inconclusive [activator, full curve, poor fit]	
COc1cccc(CN2CCN(c3cccc(C(F)(F)F)c3)CC2)c1OC	inconclusive [activator, partial curve]	
CC(=O)c1ccc(Nc2cc(C)nc3ccccc23)cc1	inconclusive [activator, single point]	
